Data taken from the supplement of paper PMC8728848.
This is one part of the list.

Key:
Test in all cases: glycan array binding signal (z-score within array); higher = stronger binding
Details in all cases: glycan notation: IUPAC condensed, linker removed
[1] = molecular target: Neu5Ac(a2-3)Gal(b1-3)GlcNAc(b1-3)Gal(b1-3)GlcNAc
In short: (§1)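 Negative Z-scores can be read as non-binding. The Z-score is calculated within each array and then averaged across arrays of one protein sequence at different concentrations or buffers and across linkers. Arrays, 3228 in all, were curated from the Consortium for Functional Glycomics database and kept only where the protein sequence was available.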

[2] = molecular target: Neu5Ac(a2-3)Gal(b1-3)GlcNAc6S
In short: as §1

[3] = molecular target: Neu5Ac(a2-3)Gal(b1-3)[Fuc(a1-4)]GlcNAc
In short: as §1

[4] = molecular target: Neu5Ac(a2-3)Gal(b1-3)[Fuc(a1-4)]GlcNAc(b1-3)Gal(b1-4)[Fuc(a1-3)]GlcNAc
In short: as §1

[5] = molecular target: Neu5Ac(a2-3)Gal(b1-3)[Neu5Ac(a2-3)Gal(b1-4)]GlcNAc
In short: as §1

[6] = molecular target: Neu5Ac(a2-3)Gal(b1-3)[Neu5Ac(a2-6)]GalNAc
In short: as §1

[7] = molecular target: Neu5Ac(a2-3)Gal(b1-4)Glc
In short: as §1

[8] = molecular target: Neu5Ac(a2-3)Gal(b1-4)GlcNAc
In short: as §1

[9] = molecular target: Neu5Ac(a2-3)Gal(b1-4)GlcNAc(b1-2)Man(a1-3)[GlcNAc(b1-2)Man(b1-4)GlcNAc(b1-2)Man(a1-6)]Man(b1-4)GlcNAc(b1-4)GlcNAc
In short: as §1

[10] = molecular target: Neu5Ac(a2-3)Gal(b1-4)GlcNAc(b1-2)Man(a1-3)[Neu5Ac(a2-3)Gal(b1-4)GlcNAc(b1-2)Man(a1-6)]Man(b1-4)GlcNAc(b1-4)GlcNAc
In short: as §1

[11] = molecular target: Neu5Ac(a2-3)Gal(b1-4)GlcNAc(b1-2)Man(a1-3)[Neu5Ac(a2-6)Gal(b1-4)GlcNAc(b1-2)Man(a1-6)]Man(b1-4)GlcNAc(b1-4)GlcNAc
In short: as §1

[12] = molecular target: Neu5Ac(a2-3)Gal(b1-4)GlcNAc(b1-3)Gal(b1-3)GlcNAc
In short: as §1

[13] = molecular target: Neu5Ac(a2-3)Gal(b1-4)GlcNAc(b1-3)Gal(b1-4)GlcNAc
In short: as §1

[14] = molecular target: Neu5Ac(a2-3)Gal(b1-4)GlcNAc(b1-3)Gal(b1-4)GlcNAc(b1-3)Gal(b1-4)GlcNAc
In short: as §1

[15] = molecular target: Neu5Ac(a2-3)Gal(b1-4)GlcNAc(b1-3)Gal(b1-4)[Fuc(a1-3)]GlcNAc
In short: as §1

[16] = molecular target: Neu5Ac(a2-3)Gal(b1-4)GlcNAc(b1-6)[Gal(b1-3)]GalNAc
In short: as §1

[17] = molecular target: Neu5Ac(a2-3)Gal(b1-4)GlcNAc(b1-6)[Neu5Ac(a2-3)Gal(b1-3)]GalNAc
In short: as §1

[18] = molecular target: Neu5Ac(a2-3)Gal(b1-4)GlcNAc6S
In short: as §1

[19] = molecular target: Neu5Ac(a2-3)Gal(b1-4)[Fuc(a1-3)]GlcNAc
In short: as §1

[20] = molecular target: Neu5Ac(a2-3)Gal(b1-4)[Fuc(a1-3)]GlcNAc(b1-3)Gal
In short: as §1

[21] = molecular target: Neu5Ac(a2-3)Gal(b1-4)[Fuc(a1-3)]GlcNAc(b1-3)Gal(b1-4)GlcNAc
In short: as §1

[22] = molecular target: Neu5Ac(a2-3)Gal(b1-4)[Fuc(a1-3)]GlcNAc(b1-3)Gal(b1-4)[Fuc(a1-3)]GlcNAc(b1-3)Gal(b1-4)[Fuc(a1-3)]GlcNAc
In short: as §1

[23] = molecular target: Neu5Ac(a2-3)Gal(b1-4)[Fuc(a1-3)]GlcNAc(b1-6)[Gal(b1-3)]GalNAc
In short: as §1

[24] = molecular target: Neu5Ac(a2-3)Gal(b1-4)[Fuc(a1-3)]GlcNAc6S
In short: as §1

[25] = molecular target: Neu5Ac(a2-3)Gal6S(b1-4)GlcNAc
In short: as §1

[26] = molecular target: Neu5Ac(a2-3)Gal6S(b1-4)[Fuc(a1-3)]GlcNAc
In short: as §1

[27] = molecular target: Neu5Ac(a2-3)GalNAc
In short: as §1

[28] = molecular target: Neu5Ac(a2-3)GalNAc(b1-4)GlcNAc
In short: as §1

[29] = molecular target: Neu5Ac(a2-3)[GalNAc(b1-4)]Gal(b1-4)Glc
In short: as §1

[30] = molecular target: Neu5Ac(a2-3)[GalNAc(b1-4)]Gal(b1-4)GlcNAc
In short: as §1

[31] = molecular target: Neu5Ac(a2-3)[Neu5Ac(a2-6)]GalNAc
In short: as §1

[32] = molecular target: Neu5Ac(a2-6)Gal
In short: as §1

[33] = molecular target: Neu5Ac(a2-6)Gal(b1-4)Glc
In short: as §1

[34] = molecular target: Neu5Ac(a2-6)Gal(b1-4)GlcNAc
In short: as §1

[35] = molecular target: Neu5Ac(a2-6)Gal(b1-4)GlcNAc(b1-2)Man(a1-3)[Gal(b1-4)GlcNAc(b1-2)Man(a1-6)]Man(b1-4)GlcNAc(b1-4)GlcNAc
In short: as §1

[36] = molecular target: Neu5Ac(a2-6)Gal(b1-4)GlcNAc(b1-2)Man(a1-3)[GlcNAc(b1-2)Man(a1-6)]Man(b1-4)GlcNAc(b1-4)GlcNAc
In short: as §1

[37] = molecular target: Neu5Ac(a2-6)Gal(b1-4)GlcNAc(b1-2)Man(a1-3)[GlcNAc(b1-2)Man(b1-4)GlcNAc(b1-2)Man(a1-6)]Man(b1-4)GlcNAc(b1-4)GlcNAc
In short: as §1

[38] = molecular target: Neu5Ac(a2-6)Gal(b1-4)GlcNAc(b1-2)Man(a1-3)[Neu5Ac(a2-6)Gal(b1-4)GlcNAc(b1-2)Man(a1-6)]Man(b1-4)GlcNAc(b1-4)GlcNAc
In short: as §1

[39] = molecular target: Neu5Ac(a2-6)Gal(b1-4)GlcNAc(b1-2)Man(a1-6)[Gal(b1-4)GlcNAc(b1-2)Man(a1-3)]Man(b1-4)GlcNAc(b1-4)GlcNAc
In short: as §1

[40] = molecular target: Neu5Ac(a2-6)Gal(b1-4)GlcNAc(b1-2)Man(a1-6)[GlcNAc(b1-2)Man(a1-3)]Man(b1-4)GlcNAc(b1-4)GlcNAc
In short: as §1

[41] = molecular target: Neu5Ac(a2-6)Gal(b1-4)GlcNAc(b1-3)Gal(b1-4)GlcNAc
In short: as §1

[42] = molecular target: Neu5Ac(a2-6)Gal(b1-4)GlcNAc(b1-3)Gal(b1-4)[Fuc(a1-3)]GlcNAc(b1-3)Gal(b1-4)[Fuc(a1-3)]GlcNAc
In short: as §1

[43] = molecular target: Neu5Ac(a2-6)Gal(b1-4)GlcNAc6S
In short: as §1

[44] = molecular target: Neu5Ac(a2-6)GalNAc
In short: as §1

[45] = molecular target: Neu5Ac(a2-6)GalNAc(b1-4)GlcNAc
In short: as §1

[46] = molecular target: Neu5Ac(a2-8)Neu5Ac
In short: as §1

[47] = molecular target: Neu5Ac(a2-8)Neu5Ac(a2-3)Gal(b1-4)Glc
In short: as §1

[48] = molecular target: Neu5Ac(a2-8)Neu5Ac(a2-3)[GalNAc(b1-4)]Gal(b1-4)Glc
In short: as §1

[49] = molecular target: Neu5Ac(a2-8)Neu5Ac(a2-8)Neu5Ac
In short: as §1

[50] = molecular target: Neu5Ac(a2-8)Neu5Ac(a2-8)Neu5Ac(a2-3)Gal(b1-4)Glc
In short: as §1

[51] = molecular target: Neu5Ac(a2-8)Neu5Ac(a2-8)Neu5Ac(a2-3)[GalNAc(b1-4)]Gal(b1-4)Glc
In short: as §1

[52] = molecular target: Neu5Ac(a2-8)Neu5Ac(a2-8)Neu5Ac(a2-8)Neu5Ac(a2-3)[GalNAc(b1-4)]Gal(b1-4)Glc
In short: as §1

[53] = molecular target: Neu5Ac(b1-6)GalNAc
In short: as §1

[54] = molecular target: Neu5Ac(b2-6)Gal(b1-4)GlcNAc
In short: as §1

[55] = molecular target: Neu5Ac(b2-6)GalNAc
In short: as §1

[56] = molecular target: Neu5Ac9Ac(a2-6)Gal(b1-4)GlcNAc
In short: as §1

[57] = molecular target: Neu5Gc(a2-3)Gal(b1-3)GlcNAc
In short: as §1

[58] = molecular target: Neu5Gc(a2-3)Gal(b1-3)[Fuc(a1-4)]GlcNAc
In short: as §1

[59] = molecular target: Neu5Gc(a2-3)Gal(b1-4)Glc
In short: as §1

[60] = molecular target: Neu5Gc(a2-3)Gal(b1-4)GlcNAc
In short: as §1

B1: E-Selectin (Mus musculus), Q00690 (protein)
chain: MNASRFLSALVFVLLAGESTAWYYNASSELMTYDEASAYCQRDYTHLVAIQNKEEINYLNSNLKHSPSYYWIGIRKVNNVWIWVGTGKPLTEEAQNWAPGEPNNKQRNEDCVEIYIQRTKDSGMWNDERCNKKKLALCYTASCTNASCSGHGECIETINSYTCKCHPGFLGPNCEQAVTCKPQEHPDYGSLNCSHPFGPFSYNSSCSFGCKRGYLPSSMETTVRCTSSGEWSAPAPACHVVECEALTHPAHGIRKCSSNPGSYPWNTTCTFDCVEGYRRVGAQNLQCTSSGIWDNETPSCKAVTCDAIPQPQNGFVSCSHSTAGELAFKSSCNFTCEQSFTLQGPAQVECSAQGQWTPQIPVCKAVQCEALSAPQQGNMKCLPSASGPFQNGSSCEFSCEEGFELKGSRRLQCGPRGEWDSKKPTCSAVKCDDVPRPQNGVMECAHATTGEFTYKSSCAFQCNEGFSLHGSAQLECTSQGKWTQEVPSCQVVQCPSLDVPGKMNMSCSGTAVFGTVCEFTCPDDWTLNGSAVLTCGATGRWSGMPPTCEAPVSPTRPLVVALSAAGTSLLTSSSLLYLLMRYFRKKAKKFVPASSCQSLQSFENYHVPSYNV
With B1 the “glycan array binding signal (z-score)” value [1] was -0.307, the “glycan array binding signal (z-score)” value [2] was -0.346 and the “glycan array binding signal (z-score)” value [3] was 4.47. The “glycan array binding signal (z-score)” value [4] was 3.01, the “glycan array binding signal (z-score)” value [5] was -0.289 and the “glycan array binding signal (z-score)” value [6] was -0.304. The “glycan array binding signal (z-score)” value [7] was -0.199, the “glycan array binding signal (z-score)” value [8] was -0.333 and the “glycan array binding signal (z-score)” value [9] was -0.068. The “glycan array binding signal (z-score)” value [10] was -0.203, the “glycan array binding signal (z-score)” value [11] was -0.271 and the “glycan array binding signal (z-score)” value [12] was -0.113. For the same binder, the “glycan array binding signal (z-score)” value [13] was -0.153, the “glycan array binding signal (z-score)” value [14] was -0.184 and the “glycan array binding signal (z-score)” value [15] was -0.278. The “glycan array binding signal (z-score)” value [16] was -0.332, the “glycan array binding signal (z-score)” value [17] was -0.24 and the “glycan array binding signal (z-score)” value [18] was -0.206. For the same binder, the “glycan array binding signal (z-score)” value [19] was 3.05, the “glycan array binding signal (z-score)” value [20] was 2.72 and the “glycan array binding signal (z-score)” value [21] was 3. For the same binder, the “glycan array binding signal (z-score)” value [22] was 3.13, the “glycan array binding signal (z-score)” value [23] was 2.21 and the “glycan array binding signal (z-score)” value [24] was 3.24. The “glycan array binding signal (z-score)” value [25] was -0.266, the “glycan array binding signal (z-score)” value [26] was -0.129 and the “glycan array binding signal (z-score)” value [27] was -0.266. The “glycan array binding signal (z-score)” value [28] was -0.371, the “glycan array binding signal (z-score)” value [29] was -0.209 and the “glycan array binding signal (z-score)” value [30] was -0.334. For the same binder, the “glycan array binding signal (z-score)” value [31] was -0.21, the “glycan array binding signal (z-score)” value [32] was -0.355 and the “glycan array binding signal (z-score)” value [33] was -0.293. For the same binder, the “glycan array binding signal (z-score)” value [34] was -0.289, the “glycan array binding signal (z-score)” value [35] was -0.218 and the “glycan array binding signal (z-score)” value [36] was -0.234. For the same binder, the “glycan array binding signal (z-score)” value [37] was -0.315, the “glycan array binding signal (z-score)” value [38] was -0.247 and the “glycan array binding signal (z-score)” value [39] was -0.219. For the same binder, the “glycan array binding signal (z-score)” value [40] was -0.194, the “glycan array binding signal (z-score)” value [41] was -0.322 and the “glycan array binding signal (z-score)” value [42] was 0.298. For the same binder, the “glycan array binding signal (z-score)” value [43] was -0.299, the “glycan array binding signal (z-score)” value [44] was -0.32 and the “glycan array binding signal (z-score)” value [45] was -0.27. For the same binder, the “glycan array binding signal (z-score)” value [46] was -0.246, the “glycan array binding signal (z-score)” value [47] was -0.242 and the “glycan array binding signal (z-score)” value [48] was -0.2. The “glycan array binding signal (z-score)” value [49] was -0.28, the “glycan array binding signal (z-score)” value [50] was -0.279 and the “glycan array binding signal (z-score)” value [51] was -0.292. For the same binder, the “glycan array binding signal (z-score)” value [52] was -0.312, the “glycan array binding signal (z-score)” value [53] was -0.379 and the “glycan array binding signal (z-score)” value [54] was -0.346. For the same binder, the “glycan array binding signal (z-score)” value [55] was -0.199, the “glycan array binding signal (z-score)” value [56] was -0.286 and the “glycan array binding signal (z-score)” value [57] was -0.335. The “glycan array binding signal (z-score)” value [58] was 4.57, the “glycan array binding signal (z-score)” value [59] was -0.33 and the “glycan array binding signal (z-score)” value [60] was -0.254.
